# Test results from the supplement of paper PMC12217912.
# Some of the results follow. The full chains were built here from the parent and the listed change. Values near 0.05 are background.
# B1: TEV protease; numbered along this chain (parent)
# chain: MGESLFKGPRDYNPISSSICHLTNESDGHTTSLYGIGFGPFIITNKHLFRRNNGTLVVQSLHGVFKVKDTTTLQQHLVDGRDMIIIRMPKDFPPFPQKLKFREPQREERICLVTTNFQTKSMSSMVSDTSCTFPSGDGIFWKHWIQTKDGQCGSPLVSTRDGFIVGIHSASNFTNTNNYFTSVPKNFMELLTNQEAQQWVSGWRLNADSVLWGGHKVFMVKPEEPFQPVKEATQL
# Variants of: B1
# Assay: raw area under fraction-flipped curve 0-4 h after induction (AUC4h, not background-subtracted), DNA-recorder readout of cleavage of the substrate (dimensionless); higher = more cleavage of the substrate by the protease variant
# Conditions: temperature: 34 °C; time window: 0-4 h after rhamnose induction
# Protocol: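 In vivo DNA recorder in E. coli TOP10(DE3) ΔrhaA at 34 °C. Each TEVp single-site mutant (parent TEVp 0) is paired with a single-site variant of the 7-mer TEVs (canonical ENLYFQ|S). The substrate sits between flexible linkers in a Bxb1-sfGFP-TEVs-SsrA fusion, so cleavage stabilises Bxb1 and speeds flipping of a recombination array, read by NGS. The value is the raw area under the fraction-flipped curve over 0-4 h after rhamnose induction (AUC4h), with ≥20 reads per time point. It is not background-subtracted; inactive controls average about 0.047.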
# 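Note: Bxb1 expression induced with 0.2% (w/v) L-rhamnose at OD600 near 0.5, cultures sampled hourly, flipped fraction per protease–substrate barcode pair counted by paired-end Illumina sequencing.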
Variant,area with substrate CNLYFQS,area with substrate DNLYFQS,area with substrate GNLYFQS,area with substrate HNLYFQS,area with substrate INLYFQS,area with substrate KNLYFQS,area with substrate LNLYFQS,area with substrate MNLYFQS,area with substrate NNLYFQS,area with substrate QNLYFQS,area with substrate SNLYFQS,area with substrate TNLYFQS,area with substrate WNLYFQS,area with substrate YNLYFQS,area with substrate FNLYFQS,area with substrate PNLYFQS,area with substrate RNLYFQS,area with substrate VNLYFQS
I164Q,0.0642,0.0652,0.0538,0.0578,0.0265,0.0622,0.0632,0.0545,0.0647,0.0683,0.068,0.059,0.0416,0.047,,,,
G136D,0.0667,0.072,0.0728,0.0694,0.059,0.0386,0.0446,0.0808,0.0559,,0.0648,0.0737,0.0616,,0.0422,0.0524,,
T114R,0.0734,0.0888,0.0748,0.0726,0.0665,0.0738,0.0737,,,0.0629,,0.0808,,,,0.0657,0.0828,0.0807
T30R,0.0507,0.0803,,0.0695,,,0.038,0.0689,0.0738,0.0962,0.0674,0.0653,0.051,,0.0695,0.076,,
T70R,0.0536,0.0514,,,,,0.0524,0.0534,0.0788,,0.0363,0.0463,0.047,0.0426,,0.0685,0.0552,
D11P,0.0558,0.0474,,0.0633,0.0602,0.069,0.0607,0.0674,0.0514,,0.0704,0.0471,0.064,0.067,,0.0606,,0.0586
R204G,0.069,0.0803,0.069,,0.064,,0.0646,0.0436,0.0534,,0.0753,0.0881,0.0649,0.0636,0.0555,0.0794,0.0703,
R204M,0.0675,0.0736,0.0692,0.0548,0.0671,0.0726,0.0674,0.0595,0.0752,,0.0518,0.0795,0.0533,,0.0625,0.0714,,
L73E,0.0389,0.0456,,0.0488,0.0669,0.0583,,0.0497,0.0447,0.0589,0.0501,0.0562,0.062,0.0632,0.0554,0.0504,,0.052
V67W,0.0592,0.0809,0.0643,,0.0639,0.0715,0.0624,,0.0668,,0.0588,0.0685,0.0537,0.0659,,,,0.0496
V67A,0.0573,0.0789,,0.0553,,0.0595,0.053,0.0521,,,,0.0548,0.0486,0.0567,,0.0623,0.0214,
I85T,0.0593,0.0899,0.0582,,0.0547,,,,,,0.0533,0.0496,0.041,0.0545,0.0473,0.0462,0.0311,0.0661
I43D,0.0355,0.0526,0.0379,0.0554,0.0385,0.0447,0.0311,0.0325,,0.0501,0.0453,0.0178,0.0354,0.0334,0.041,0.0389,,0.0434
